Test results: the supplement of paper PMC8047034
Counter-ions that a name gives are not always drawn. Some of the results follow. Repeats are few or missing, and single values can be far off.

The compounds below were run on OVCAR4 (assay: log2 surviving fraction (library drug vs vehicle, or drug + carboplatin vs carboplatin alone; relative to plate median); ovarian cancer lines: OVCAR4 is platinum-sensitive and Ov4Carbo platinum-resistant; higher = more cell survival). Conditions: library drug concentration 10 µM; 7 days; carboplatin co-treatment 0 µM.

Compound	log2 surviving fraction
O=C(O)CCCN1CCC(O[C@@H](c2ccc(Cl)cc2)c2ccccn2)CC1 [Bepotastine Besilate]	0.631
COC(=O)N/N=C/c1c[n+]([O-])c2ccccc2[n+]1[O-] [Carbadox]	-0.0843
CCOC(=O)CC(=O)N1CCSC1COc1ccccc1OC (centres undefined) [Moguisteine]	0.139
CCC1(c2ccc(N)cc2)CCC(=O)NC1=O (centres undefined) [Aminoglutethimide (Cytadren)]	-4.02
CC(=O)O[C@H]1C[C@@H]2CC[C@@H]3[C@H](CC[C@@]4(C)[C@H]3C[C@H]([N+]3(C)CCCCC3)[C@@H]4OC(C)=O)[C@@]2(C)C[C@@H]1[N+]1(C)CCCCC1 [Pancuronium (Pavulon)]	-0.25
CC(NC(C)(C)C)C(=O)c1cccc(Cl)c1 (centres undefined) [Amfebutamone (Bupropion)]	1.1
CCCc1nc2c(C)cc(-c3nc4ccccc4n3C)cc2n1Cc1ccc(-c2ccccc2C(=O)O)cc1 [Telmisartan (Micardis)]	-1.27
Clc1ccc2nsnc2c1NC1=NCCN1 [Tizanidine HCl]	0.653
CN1C2CCC1CC(OC(=O)C(O)c1ccccc1)C2 (centres undefined) [Homatropine Bromide]	0.601
CCc1cc2c(cc1CC)CC(NC[C@H](O)c1ccc(O)c3[nH]c(=O)ccc13)C2 [Indacaterol Maleate]	-0.496
OCCOCCN1CCN(C(c2ccccc2)c2ccc(Cl)cc2)CC1 (centres undefined) [Hydroxyzine 2HCl]	0.0471
COc1cccc(N(C)C(=S)Oc2ccc3c(c2)CCCC3)n1 [Liranaftate]	-0.138
C=CCN1CC[C@]23c4c5ccc(O)c4O[C@H]2C(=O)CC[C@@]3(O)[C@H]1C5 [Naloxone HCl]	1.13
C[C@@H]1O[C@@H](O[C@H]2C[C@@H](O)[C@]3(CO)[C@H]4[C@H](O)C[C@]5(C)[C@@H](C6=CC(=O)OC6)CC[C@]5(O)[C@@H]4CC[C@]3(O)C2)[C@H](O)[C@H](O)[C@H]1O [Ouabain]	-8.49
NC(=O)N1c2ccccc2C=Cc2ccccc21 [Carbamazepine (Carbatrol)]	0.972
CCCN(CCC)CCc1cccc2c1CC(=O)N2 [Ropinirole HCl]	-0.00216
C[C@]12C=CC(=O)C=C1CC[C@H]1[C@@H]3C[C@@H](O)[C@](O)(C(=O)CO)[C@@]3(C)C[C@H](O)[C@@]12F [Triamcinolone (Aristocort)]	-0.0872

Compound	log2 surviving fraction
CCN(Cc1ccncc1)C(=O)C(CO)c1ccccc1 (centres undefined) [Tropicamide]	1.14
CC(C)C(=O)Oc1ccc(CO)cc1[C@H](CCN(C(C)C)C(C)C)c1ccccc1 [Fesoterodine fumarate (Toviaz)]	0.0852
CC(=O)O[C@]1(C(C)=O)CC[C@H]2[C@@H]3C[C@H](C)C4=CC(=O)C=C[C@]4(C)[C@@]3(F)[C@@H](O)C[C@@]21C [Fluorometholone Acetate]	1.51
COC(=O)C1=CCCN(C)C1 [Arecoline]	-0.134
c1ccc2[nH]c(-c3cscn3)nc2c1 [Thiabendazole]	-1.81
CCN(CC)CCOC(=O)c1ccc(N)cc1 [Procaine (Novocaine) HCl]	0.877
COC(=O)C1=C(C)NC(C)=C(C(=O)OCCN(C)Cc2ccccc2)C1c1cccc([N+](=O)[O-])c1 (centres undefined) [Nicardipine HCl]	-1.53
O=C1NC(=O)C(c2ccccc2)(c2ccccc2)N1 [Phenytoin (Lepitoin)]	0.22
CN1CCN(c2c(F)cc3c(=O)c(C(=O)O)cn(CCF)c3c2F)CC1 [Fleroxacin (Quinodis)]	0.618
CN(C)CCCOc1nn(Cc2ccccc2)c2ccccc12 [Benzydamine Hydrochloride]	-0.866
Cc1cc(C2CCCCC2)n(O)c(=O)c1 [Ciclopirox (Penlac)]	-8.18
CN1CC(=O)NC1=N [Creatinine]	0.546
Nc1ccc(C(=O)O)c(O)c1 [Aminosalicylate sodium]	-0.462
COc1c(N2C[C@@H]3CCCN[C@@H]3C2)c(F)cc2c(=O)c(C(=O)O)cn(C3CC3)c12 [Moxifloxacin hydrochloride]	1.05
CC(=O)Oc1ccccc1C(=O)O [Aspirin (Acetylsalicylic acid)]	0.708
OCC(O)CN1CCN(c2ccccc2)CC1 (centres undefined) [Dropropizine]	0.97
O=S(=O)(O)CCS [Mesna (Uromitexan, Mesnex)]	1.13
